Results from PubChem BioAssay AID485294 (National Center for Advancing Translational Sciences (NCATS), 2010).
The campaign covered roughly 370,000 compounds. About 150 (0.041%) were called active. Inconclusive means that the source gave no clear call. Such entries were picked first, then a sample of the others. Calls come from the whole dose curve; as a rule, active = well fitted inhibition curve with a large enough effect; inconclusive = small, poorly fitted or top-dose-only effect; inactive = flat fitted curve, though single readings scatter. No potency is given beside an inconclusive call; the fits are too rough.

target: Beta-lactamase (Escherichia coli (strain K12)) (UniProt P00811); experiment: qHTS Inhibitors of AmpC Beta-Lactamase (assay with detergent); conditions: AmpC hydrolysis of nitrocefin, absorbance 480 nm, 0.01% Triton; series mostly up to 114 µM; note: nearly all actives have a fitted effect of over 25% in size
Sequence of UniProt P00811 (P00811 whole entry, looked up): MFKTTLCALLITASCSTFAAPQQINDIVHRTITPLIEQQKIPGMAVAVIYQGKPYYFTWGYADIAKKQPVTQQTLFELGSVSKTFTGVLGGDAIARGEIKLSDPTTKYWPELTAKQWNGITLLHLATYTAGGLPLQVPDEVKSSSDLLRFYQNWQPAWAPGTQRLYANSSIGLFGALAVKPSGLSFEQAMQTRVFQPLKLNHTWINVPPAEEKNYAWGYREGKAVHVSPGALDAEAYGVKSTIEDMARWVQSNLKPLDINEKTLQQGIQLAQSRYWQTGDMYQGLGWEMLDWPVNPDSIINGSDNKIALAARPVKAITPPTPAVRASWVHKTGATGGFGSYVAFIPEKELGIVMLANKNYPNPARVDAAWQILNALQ
Method in brief: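 20 mM phosphate pH 7.0 + 0.01% (detergent screen) or 0.0001% Triton X-100; 5.3 nM AmpC reagent; cpd preinc 15 min RT; nitrocefin (800 uM stock) to start; A480 q20 s × 4 min; Activity was normalised to no-enzyme and no-compound control wells.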
Potency is the fitted concentration of half-maximal effect; tags give direction and shape of the fitted curve.

| Compound | Potency |
| --- | --- |
| NC(N)=NC(=O)c1nc(Cl)c(N2CCCCCC2)nc1N | inconclusive [inhibitor, partial curve, poor fit] |
| COc1ccc(N2CCN(c3cnc4ccccc4n3)CC2)cc1 | inactive |
| CC1CN(S(=O)(=O)c2cccc(C(=O)Nc3ccccc3N3CCCC3)c2)CC(C)O1 (stereo unspecified) | inactive |
| CCOC(=O)C1CCN(C(=O)CSc2nc3ncccc3[nH]2)CC1 | inconclusive [inhibitor, full curve, poor fit] |
| CCCCOc1ccccc1C(=O)NCCCCCC(=O)O | inconclusive [inhibitor, full curve, poor fit] |
| CC(C)Cn1nc(NC(=O)C2CCCO2)c2cc3ccccc3nc21 (stereo unspecified) | inconclusive [inhibitor, full curve, poor fit] |
| Cc1ccc(CNC(=O)c2oc3ccc(S(=O)(=O)N4CCOCC4)cc3c2C)cc1 | inconclusive [inhibitor, full curve, poor fit] |
| COc1ccc(NS(=O)(=O)c2ccc(N/N=C(\C)c3ccncc3)c([N+](=O)[O-])c2)cc1 | inconclusive [inhibitor, full curve, poor fit] |
| O=C(NC1CC(=O)N(c2ccccc2)C1)C(c1ccccc1)c1ccccc1 (stereo unspecified) | inactive |
| c1ccc2c(c1)CN1CCCC1=N2 | inactive |
| COc1ccc(CCNC(=O)CSc2ccc(-c3ccco3)nn2)cc1OC | inactive |
| CCN(CC)c1ccc(-c2nnc(SCC(=O)N(CCOC)c3c(N)n(CC(C)C)c(=O)[nH]c3=O)o2)cc1 | inactive |
| CCOC(=O)c1nn(-c2cc(C(=O)OC)cc(C(=O)OC)c2)cc1O | inconclusive [inhibitor, full curve, poor fit] |
| COC(=O)CSc1nc(COc2ccccc2)nc2ccccc12 | inconclusive [inhibitor, full curve, poor fit] |
| CC(=O)c1c(C)[nH]c(C(=O)OCc2ccccc2F)c1C | inconclusive [inhibitor, single point] |
| O=C(O)C1CC=CCC1C(=O)Nc1ccc(F)c(F)c1 (stereo unspecified) | inconclusive [inhibitor, full curve, poor fit] |
| O=C(NCCCn1ccnc1)c1cc2nc(-c3ccc(Br)cc3)cc(C(F)(F)F)n2n1 | inactive |
| CCOC(=O)N1CCN(CCC(=O)Nc2ccccc2)CC1 | inconclusive [inhibitor, full curve, poor fit] |
| CC(C)C[C@@H](CSc1ccccc1)N1CCN(CCc2ccccc2)CCC1=O | inactive |
| Cc1cc(C)cc(N(CCC#N)C(=O)COC(=O)C2CCN(c3ccc(C(F)(F)F)cn3)CC2)c1 | inconclusive [inhibitor, partial curve] |
| CCOc1ccc(N2C(=O)CC(N3CCN(c4ccc(F)cc4)CC3)C2=O)cc1 (stereo unspecified) | inactive |
| O=C1CN=C(Nc2ccccc2Cl)N1c1ccccc1 | inactive |
| CCn1c(O)c(C=NCCN2CCOCC2)sc1=S | inconclusive [inhibitor, full curve, poor fit] |

| Compound | Potency |
| --- | --- |
| COc1ccc2c(c1)O[C@@H](c1cccc(C(F)(F)F)c1)[C@H](OC(=O)N[C@H]1CCCc3ccccc31)C2=O | inconclusive [inhibitor, partial curve, poor fit] |
| CC(=O)c1ccc(NC(=O)CSc2nc3nc(C)cc(C)n3n2)cc1 | inconclusive [inhibitor, full curve, poor fit] |
| Cc1oc2ccc(NS(=O)(=O)c3ccc(C(C)(C)C)cc3)cc2c1C(=O)Nc1ccccc1 | inactive |
| COc1cc(O)c(C(CCN2CCCC(C)C2)c2ccc(N(C)C)cc2)c(OC)c1 (stereo unspecified) | inactive |
| Nc1nc(-c2ccco2)cs1 | inconclusive [inhibitor, partial curve] |
| Cc1ccc(/C=C2\SC(=S)N(c3cccnc3)C2=O)cc1 | inconclusive [inhibitor, full curve] |
| CC(C)c1cc(Nc2cccc(O)c2)cc(C(C)C)c1O | inactive |
| O=C(NC(O)C(=O)c1ccccc1)c1ccccn1 (stereo unspecified) | inactive |
| Cc1cccc(CSc2nc3c(cc2C#N)CN(C)CC3)c1 | inactive |
| COc1ccc(NC(=O)C(C)NS(=O)(=O)c2ccccc2)cc1Cl (stereo unspecified) | inconclusive [inhibitor, full curve, poor fit] |
| COC(=O)CSc1nnc(-c2ccc(NS(=O)(=O)c3ccccc3)cc2)o1 | inconclusive [inhibitor, partial curve, poor fit] |
| Cc1cc(C)n(C(=O)c2sc3cc(F)ccc3c2Cl)n1 | inconclusive [inhibitor, full curve] |
| Oc1[nH]c2c(Cl)cc(Cl)cc2c1N=NC(=S)NCC1CCCO1 (stereo unspecified) | inconclusive [inhibitor, full curve, poor fit] |
| CCC(=O)N1CCc2cc(-c3csc(NC(=O)c4ccco4)n3)ccc21 | inactive |
| Cc1ccc(C)c(CNC(=O)Nc2ccccc2)c1 | inactive |
| Cc1ccc2nc(SCC(=O)NCc3ccc(S(N)(=O)=O)cc3)[nH]c2c1 | inactive |
| Cn1cnnc1SCC(=O)c1ccco1 | inconclusive [inhibitor, partial curve, poor fit] |
| COc1ccc(NS(=O)(=O)c2cccc(C(=O)OCC(=O)N3CCN(c4ccc(OC)cc4)CC3)c2)cc1 | inactive |
| O=C1OC(N2C(=O)CC[C@H]2C(=O)Nc2cccc(F)c2)c2ccccc21 (stereo partly specified) | inconclusive [inhibitor, full curve, poor fit] |
| CN(C)C1=NC[C@H](Cc2ccccc2)N1CCCC1CCCCC1 | inconclusive [inhibitor, single point] |
| O=C(Nc1ccc(O)c(-c2nc3ccccc3s2)c1)c1cccs1 | inconclusive [inhibitor, partial curve, poor fit] |
| Cn1ncc(Br)c1C(=O)NC1C2CC3CC(C2)CC1C3 (stereo unspecified) | inconclusive [inhibitor, partial curve] |
| CCC(C(=O)OCC(=O)Nc1c(Cl)cc(Cl)cc1Cl)c1ccccc1 (stereo unspecified) | inconclusive [inhibitor, full curve, poor fit] |
